Results reported in publication PMC10018360.
No constants are given. Whether binding was seen depends on the method and setting. In cells and extracts the contact can be indirect. Some results given as binding are weak or reduced against the parent protein; the word gives no strength. Blank lines part the entries; values can stand above or below the substance they belong to.

Chains of the proteins cited; added tags and fusions are not shown. Lines headed by an entry give the natural chain unless they say otherwise; changes in a name come on top.
UniProt Q9Y3E1: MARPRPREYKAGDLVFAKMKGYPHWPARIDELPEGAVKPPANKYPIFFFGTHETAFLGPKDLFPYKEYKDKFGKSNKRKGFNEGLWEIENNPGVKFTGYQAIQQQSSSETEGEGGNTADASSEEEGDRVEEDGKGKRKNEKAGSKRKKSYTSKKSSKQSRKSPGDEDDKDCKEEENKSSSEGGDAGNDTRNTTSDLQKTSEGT
UniProt Q12888: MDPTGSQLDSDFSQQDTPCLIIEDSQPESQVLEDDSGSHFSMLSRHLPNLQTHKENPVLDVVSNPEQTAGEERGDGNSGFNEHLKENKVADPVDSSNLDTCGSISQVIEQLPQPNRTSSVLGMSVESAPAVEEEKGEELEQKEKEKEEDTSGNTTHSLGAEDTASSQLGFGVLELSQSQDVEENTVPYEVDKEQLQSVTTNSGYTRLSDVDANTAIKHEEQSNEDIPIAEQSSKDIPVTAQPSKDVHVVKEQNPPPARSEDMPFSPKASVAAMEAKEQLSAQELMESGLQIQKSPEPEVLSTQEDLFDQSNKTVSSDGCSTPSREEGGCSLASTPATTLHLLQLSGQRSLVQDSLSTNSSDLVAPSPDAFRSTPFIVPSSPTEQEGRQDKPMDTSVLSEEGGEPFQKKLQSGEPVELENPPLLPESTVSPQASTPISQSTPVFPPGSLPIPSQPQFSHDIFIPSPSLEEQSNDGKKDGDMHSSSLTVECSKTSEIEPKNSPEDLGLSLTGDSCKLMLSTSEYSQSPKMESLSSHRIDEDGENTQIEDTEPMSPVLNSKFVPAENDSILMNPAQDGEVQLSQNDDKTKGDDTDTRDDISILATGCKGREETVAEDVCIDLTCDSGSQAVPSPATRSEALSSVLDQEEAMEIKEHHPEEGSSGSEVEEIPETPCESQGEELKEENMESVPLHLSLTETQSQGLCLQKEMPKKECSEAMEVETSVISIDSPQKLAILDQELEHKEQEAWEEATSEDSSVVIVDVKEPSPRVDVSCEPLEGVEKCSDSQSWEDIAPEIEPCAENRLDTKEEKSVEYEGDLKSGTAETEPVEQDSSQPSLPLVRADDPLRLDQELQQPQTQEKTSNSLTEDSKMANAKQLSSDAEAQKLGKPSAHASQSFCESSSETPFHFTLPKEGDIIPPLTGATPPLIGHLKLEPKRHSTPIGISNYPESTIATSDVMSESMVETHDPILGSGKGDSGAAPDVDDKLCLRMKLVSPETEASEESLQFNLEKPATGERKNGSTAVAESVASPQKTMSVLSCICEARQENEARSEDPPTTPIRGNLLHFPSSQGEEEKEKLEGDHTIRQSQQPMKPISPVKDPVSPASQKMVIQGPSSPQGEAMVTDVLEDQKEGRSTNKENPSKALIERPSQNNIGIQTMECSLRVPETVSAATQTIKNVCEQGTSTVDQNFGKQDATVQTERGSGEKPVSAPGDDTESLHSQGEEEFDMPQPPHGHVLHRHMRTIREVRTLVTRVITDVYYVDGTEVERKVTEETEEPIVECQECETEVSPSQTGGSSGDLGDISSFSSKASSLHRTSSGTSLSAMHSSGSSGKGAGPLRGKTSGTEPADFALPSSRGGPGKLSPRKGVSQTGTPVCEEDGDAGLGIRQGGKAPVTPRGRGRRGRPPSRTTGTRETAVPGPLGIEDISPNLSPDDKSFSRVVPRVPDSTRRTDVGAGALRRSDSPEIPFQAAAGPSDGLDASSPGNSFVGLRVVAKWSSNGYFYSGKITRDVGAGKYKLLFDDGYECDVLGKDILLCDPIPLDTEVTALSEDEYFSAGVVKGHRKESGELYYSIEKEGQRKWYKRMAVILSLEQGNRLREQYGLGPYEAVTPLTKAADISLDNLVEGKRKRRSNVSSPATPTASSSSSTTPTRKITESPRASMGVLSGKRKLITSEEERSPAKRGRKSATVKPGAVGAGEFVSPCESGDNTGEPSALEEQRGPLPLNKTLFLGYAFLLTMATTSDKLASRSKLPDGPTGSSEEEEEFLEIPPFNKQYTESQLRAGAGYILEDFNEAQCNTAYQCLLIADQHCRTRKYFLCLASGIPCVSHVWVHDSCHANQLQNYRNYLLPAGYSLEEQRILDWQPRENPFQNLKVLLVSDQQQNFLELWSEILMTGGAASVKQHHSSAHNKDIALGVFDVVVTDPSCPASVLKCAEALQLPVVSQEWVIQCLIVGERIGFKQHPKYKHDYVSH

Experiments:
[1] = target: HDGFRP3 (hepatoma-derived growth factor related protein 3), endogenous (human (endogenous in HEK293T, U2OS, MCF10A)) (UniProt Q9Y3E1); test: co-IP; endogenous proteins; HEK293T lysates in NTEN buffer with Benzonase, Protein A agarose with anti-HDGFRP3 or anti-53BP1 antibody, 3 h at 4°C; untreated or irradiated (10 Gy, 1 h recovery)
[2] = target: SFB-tagged human HDGFRP3 (wild type) (human) (UniProt Q9Y3E1); test: co-IP; HEK293T cells co-transfected with HA-tagged 53BP1 and SFB-tagged HDGFRP3 (WT or mutants); precipitation with streptavidin beads, western blotting
[3] = target: GST-HDGFRP3 fusion protein (human) (UniProt Q9Y3E1); test: pull-down; GST-HDGFRP3 (10 μg) immobilised on glutathione Sepharose 4B beads, incubated with lysates of HEK293T cells expressing HA-53BP1 (WT, 28SA or 30SA) in NTEN buffer with 2 mM MgCl2 and Benzonase, 3 h at 4°C; cells untreated, IR 10 Gy, or ATMi before IR; only the target purified
[4] = target: 53BP1, endogenous (human (endogenous in HEK293T, U2OS, MCF10A)) (UniProt Q12888); test: proximity ligation; in situ PLA (Duolink) in fixed U2OS cells with antibodies to the two endogenous proteins; untreated, IR (10 Gy), ATMi before IR, MDC1 knockdown
[5] = target: 53BP1, endogenous (human (endogenous in HEK293T, U2OS, MCF10A)) (UniProt Q12888); test: co-IP; endogenous proteins; HEK293T lysates in NTEN buffer with Benzonase, Protein A agarose with anti-HDGFRP3 or anti-53BP1 antibody, 3 h at 4°C; untreated or irradiated (10 Gy, 1 h recovery)
[6] = target: SFB-53BP1 (wild type) (UniProt Q12888); test: proximity ligation; in situ PLA in U2OS cells transfected with an SFB-tagged construct; FLAG antibody and antibody to the endogenous partner
[7] = target: 53BP1, endogenous (human (endogenous in HEK293T, U2OS, MCF10A)) (UniProt Q12888); test: as above

binding [1]: binds
Substance: 53BP1, endogenous (from UniProt Q12888 1-1972)

binding [2]: no binding
Substance: HA-53BP1 D1521R mutant (from UniProt Q12888 1-1972)

binding [2]: binds
Substance: HA-53BP1 L1619A mutant (from UniProt Q12888 1-1972)

binding [2]: binds
binding [3]: binds
Substance: HA-tagged 53BP1 (wild type) (from UniProt Q12888 1-1972)

binding [4]: binds
binding [5]: binds
binding [6]: binds
Substance: HDGFRP3 (hepatoma-derived growth factor related protein 3), endogenous (from UniProt Q9Y3E1 1-203)

binding [7]: binds
Substance: SFB-tagged human HDGFRP3 (wild type) (from UniProt Q9Y3E1 1-203)
